# Reference: the supplement of paper PMC7826260
# Some of the results follow. Each Rep nickase domain was tested in vitro on the same pool of single strands at 3 µM enzyme and 37 °C for 1 h; the strands have 90 letters, of which the middle is given. A value is the log2 ratio of uncut reads to the pool without enzyme; the lower, the more was cut; hits are not called. Shares of all reads are compared; values above 0 arise when much of the pool is cut.
# Columns and labels:
# Test in all cases: uncleaved DNA left, log2 of reads against the no-enzyme library (log2 ratio); higher = less cleavage (more negative = more Rep cleavage of the k-mer); sequences stand for … in CTCGTCCG…ACCGGAGA
# [1] = test system: T1, Rep nickase domain of Muscovy duck circovirus
# T1 sequence (protein, residues 1-111, tag omitted): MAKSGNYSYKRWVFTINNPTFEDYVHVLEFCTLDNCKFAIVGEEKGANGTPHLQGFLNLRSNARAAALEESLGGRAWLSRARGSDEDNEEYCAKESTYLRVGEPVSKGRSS
# Procedure: (§1)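 A pool of 90-nt single-stranded DNAs with seven random bases just before the constant AC of the nick site (name = the seven bases) was cut by 3 µM recombinant His6-SUMO-tagged Rep nickase domain (300 nM DNA, 50 mM HEPES pH 8.0, 50 mM NaCl, 1 mM MnCl2, 1 h, 37 °C, three replicates). Uncut DNA was amplified and sequenced.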
# [2] = test system: T2, Rep nickase domain of banana bunchy top virus
# T2 sequence (protein, residues 1-94, tag omitted): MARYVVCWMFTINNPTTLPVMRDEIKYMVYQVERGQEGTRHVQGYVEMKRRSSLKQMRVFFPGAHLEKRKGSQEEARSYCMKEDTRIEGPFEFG
# Procedure: as §1
# [3] = test system: T3, Rep nickase domain of cabbage leaf curl virus
# T3 sequence (protein, residues 1-116, tag omitted): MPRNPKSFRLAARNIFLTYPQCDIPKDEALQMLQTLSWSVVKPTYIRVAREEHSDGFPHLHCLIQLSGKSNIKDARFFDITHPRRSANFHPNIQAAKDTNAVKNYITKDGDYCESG
# Procedure: as §1
# [4] = test system: T4, Rep nickase domain of chickpea chlorotic dwarf virus
# T4 sequence (protein, residues 1-124, tag omitted): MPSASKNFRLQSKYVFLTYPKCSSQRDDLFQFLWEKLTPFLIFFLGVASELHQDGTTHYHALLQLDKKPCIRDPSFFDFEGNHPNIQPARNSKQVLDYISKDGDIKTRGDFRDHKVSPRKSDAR
# Procedure: as §1
# [5] = test system: T5, Rep nickase domain of faba bean necrotic yellows virus
# T5 sequence (protein, residues 1-98, tag omitted): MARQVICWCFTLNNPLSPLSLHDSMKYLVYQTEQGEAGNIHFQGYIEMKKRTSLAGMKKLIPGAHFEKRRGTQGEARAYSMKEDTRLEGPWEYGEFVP
# Procedure: as §1
# [6] = test system: T6, Rep nickase domain of maize striate mosaic virus
# T6 sequence (protein, residues 1-117, tag omitted): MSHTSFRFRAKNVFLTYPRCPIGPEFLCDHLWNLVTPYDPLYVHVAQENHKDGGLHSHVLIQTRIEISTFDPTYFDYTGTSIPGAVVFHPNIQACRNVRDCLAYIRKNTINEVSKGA
# Procedure: as §1
# [7] = test system: T7, Rep nickase domain of porcine circovirus 2
# T7 sequence (protein, residues 2-116, tag omitted): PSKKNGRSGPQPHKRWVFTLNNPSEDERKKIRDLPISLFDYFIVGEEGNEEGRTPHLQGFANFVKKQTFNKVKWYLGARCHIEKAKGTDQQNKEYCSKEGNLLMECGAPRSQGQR
# Procedure: as §1
# [8] = test system: T8, Rep nickase domain of tomato golden mosaic virus
# T8 sequence (protein, residues 1-124, tag omitted): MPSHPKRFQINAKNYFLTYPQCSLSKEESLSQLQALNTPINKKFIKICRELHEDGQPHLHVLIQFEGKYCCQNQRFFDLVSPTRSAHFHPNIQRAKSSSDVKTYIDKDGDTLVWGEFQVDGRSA
# Procedure: as §1
# [9] = test system: T9, Rep nickase domain of tomato yellow leaf curl virus
# T9 sequence (protein, residues 1-136, tag omitted): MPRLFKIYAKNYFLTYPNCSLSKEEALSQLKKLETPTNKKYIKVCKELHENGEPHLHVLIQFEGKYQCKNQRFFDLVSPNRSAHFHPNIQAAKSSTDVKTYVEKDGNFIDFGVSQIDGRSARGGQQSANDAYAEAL
# Procedure: as §1
# [10] = test system: T10, Rep nickase domain of wheat dwarf virus
# T10 sequence (protein, residues 1-137, tag omitted): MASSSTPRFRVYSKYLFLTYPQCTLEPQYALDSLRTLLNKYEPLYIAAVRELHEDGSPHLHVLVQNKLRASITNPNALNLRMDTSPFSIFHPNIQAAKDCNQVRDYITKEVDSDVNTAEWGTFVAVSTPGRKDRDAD
# Procedure: as §1
Sequence,uncleaved DNA left (log2) [1],uncleaved DNA left (log2) [2],uncleaved DNA left (log2) [3],uncleaved DNA left (log2) [4],uncleaved DNA left (log2) [5],uncleaved DNA left (log2) [6],uncleaved DNA left (log2) [7],uncleaved DNA left (log2) [8],uncleaved DNA left (log2) [9],uncleaved DNA left (log2) [10]
TAATCCC,-0.467,-0.0524,-3.44,-3.19,-0.0186,-2.66,-0.853,-3.49,-0.118,-3.32
CCTTATG,0.0581,-0.101,-0.592,-0.485,0.0559,-1.19,0.159,-0.0624,-0.0894,-0.0619
ATGCATA,-0.041,-0.0538,-0.371,-1,-0.15,-0.769,-0.172,-0.00347,-0.0136,0.0882
TTGACGT,0.179,0.141,-0.195,-0.178,0.0567,-0.566,0.158,-0.0318,0.123,0.125
CCGAACA,-0.189,-0.0471,-0.0661,-1.36,-0.0558,-0.453,-0.211,-0.0155,-0.0837,-0.0768
GTAATCC,0.0613,0.0591,0.347,0.871,0.00295,1.56,0.0699,-0.0344,0.0583,0.114
GTGCTAC,-0.145,-0.0793,0.0923,0.7,-0.178,1.68,-0.225,-0.0151,-0.101,-0.0216
CGAGTTA,-0.137,-0.0268,-0.245,-0.698,-0.0321,-0.116,-0.702,-0.101,-0.051,-0.00831
TTTTATC,0.0187,0.0747,0.259,0.112,0.0529,-0.271,-0.09,-0.00434,0.156,0.0301
TAACTCC,-0.106,-0.0265,-1.01,-2.92,-0.0626,0.259,-0.104,-0.116,-0.112,-0.326
CGTGGGC,0.0367,-0.0516,0.229,0.587,-0.00348,0.206,0.063,-0.101,-0.00284,-0.115
GAGGCCC,0.148,0.158,0.443,1.29,0.0593,1.64,0.115,0.0436,0.201,0.334
ATCACCA,-0.0234,-0.0308,-0.187,-0.984,-0.0626,-0.236,-0.184,-0.0432,-0.125,-0.0318
ACTCTTG,-0.0102,-0.211,-0.735,-1.37,-0.113,-1.13,-0.0327,-0.054,-0.129,-0.0544
GTTAGCT,-0.078,-0.0293,0.0862,0.283,-0.0859,0.412,0.0538,-0.0689,-0.102,-0.0661
